Source: the supplement of paper PMC8728848
The other results are listed elsewhere or left out.

Assays:
Test in all cases: glycan array binding signal (z-score within array); higher = stronger binding
Details in all cases: glycan notation: IUPAC condensed, linker removed
[1] = target: GlcNAc(a1-4)Gal(b1-3)GlcNAc
Summary of the method: (§1)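 Negative Z-scores can be read as non-binding. The Z-score is calculated within each array and then averaged across arrays of one protein sequence at different concentrations or buffers and across linkers. Arrays, 3228 in all, were curated from the Consortium for Functional Glycomics database and kept only where the protein sequence was available.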

[2] = target: GlcNAc(a1-4)Gal(b1-4)GalNAc
Summary of the method: as §1

[3] = target: GlcNAc(a1-4)Gal(b1-4)GlcNAc
Summary of the method: as §1

[4] = target: GlcNAc(a1-4)Gal(b1-4)GlcNAc(b1-3)Gal(b1-4)Glc
Summary of the method: as §1

[5] = target: GlcNAc(a1-4)Gal(b1-4)GlcNAc(b1-3)Gal(b1-4)GlcNAc
Summary of the method: as §1

[6] = target: GlcNAc(a1-4)Gal(b1-4)GlcNAc(b1-3)Gal(b1-4)GlcNAc(b1-3)Gal(b1-4)GlcNAc
Summary of the method: as §1

[7] = target: GlcNAc(a1-4)Gal(b1-4)GlcNAc(b1-3)Gal(b1-4)[Fuc(a1-3)]GlcNAc(b1-3)Gal(b1-4)[Fuc(a1-3)]GlcNAc
Summary of the method: as §1

[8] = target: GlcNAc(a1-6)Gal(b1-4)GlcNAc
Summary of the method: as §1

[9] = target: GlcNAc(b1-2)Gal(b1-3)GalNAc
Summary of the method: as §1

[10] = target: GlcNAc(b1-2)Man(a1-3)[GlcNAc(b1-2)Man(a1-6)]Man(b1-4)GlcNAc(b1-4)GlcNAc
Summary of the method: as §1

[11] = target: GlcNAc(b1-2)Man(a1-3)[GlcNAc(b1-2)Man(a1-6)]Man(b1-4)GlcNAc(b1-4)[Fuc(a1-6)]GlcNAc
Summary of the method: as §1

[12] = target: GlcNAc(b1-2)Man(a1-3)[GlcNAc(b1-4)][GlcNAc(b1-2)Man(a1-6)]Man(b1-4)GlcNAc(b1-4)GlcNAc
Summary of the method: as §1

[13] = target: GlcNAc(b1-2)Man(a1-3)[GlcNAc(b1-4)][GlcNAc(b1-2)Man(a1-6)]Man(b1-4)GlcNAc(b1-4)[Fuc(a1-6)]GlcNAc
Summary of the method: as §1

[14] = target: GlcNAc(b1-2)[GlcNAc(b1-4)]Man(a1-3)[GlcNAc(b1-2)Man(a1-6)]Man(b1-4)GlcNAc(b1-4)GlcNAc
Summary of the method: as §1

[15] = target: GlcNAc(b1-2)[GlcNAc(b1-4)]Man(a1-3)[GlcNAc(b1-4)][GlcNAc(b1-2)Man(a1-6)]Man(b1-4)GlcNAc(b1-4)GlcNAc
Summary of the method: as §1

[16] = target: GlcNAc(b1-2)[GlcNAc(b1-4)]Man(a1-3)[GlcNAc(b1-4)][GlcNAc(b1-2)[GlcNAc(b1-6)]Man(a1-6)]Man(b1-4)GlcNAc(b1-4)GlcNAc
Summary of the method: as §1

[17] = target: GlcNAc(b1-2)[GlcNAc(b1-4)]Man(a1-3)[GlcNAc(b1-4)][GlcNAc(b1-2)[GlcNAc(b1-6)]Man(a1-6)]Man(b1-4)GlcNAc(b1-4)[Fuc(a1-6)]GlcNAc
Summary of the method: as §1

[18] = target: GlcNAc(b1-2)[GlcNAc(b1-6)]Man(a1-6)[GlcNAc(b1-2)Man(a1-3)]Man(b1-4)GlcNAc(b1-4)GlcNAc
Summary of the method: as §1

[19] = target: GlcNAc(b1-2)[GlcNAc(b1-6)]Man(a1-6)[GlcNAc(b1-2)Man(a1-3)]Man(b1-4)GlcNAc(b1-4)[Fuc(a1-6)]GlcNAc
Summary of the method: as §1

[20] = target: GlcNAc(b1-2)[GlcNAc(b1-6)]Man(a1-6)[GlcNAc(b1-4)][GlcNAc(b1-2)Man(a1-3)]Man(b1-4)GlcNAc(b1-4)GlcNAc
Summary of the method: as §1

GlcNAc(b1-3)Fuc = target: GlcNAc(b1-3)Fuc
Summary of the method: as §1

GlcNAc(b1-3)Gal = target: GlcNAc(b1-3)Gal
Summary of the method: as §1

[21] = target: GlcNAc(b1-3)Gal(b1-3)GalNAc
Summary of the method: as §1

GlcNAc(b1-3)Gal(b1-4)Glc = target: GlcNAc(b1-3)Gal(b1-4)Glc
Summary of the method: as §1

[22] = target: GlcNAc(b1-3)Gal(b1-4)GlcNAc
Summary of the method: as §1

[23] = target: GlcNAc(b1-3)Gal(b1-4)GlcNAc(b1-2)Man(a1-3)[GlcNAc(b1-3)Gal(b1-4)GlcNAc(b1-2)Man(a1-6)]Man(b1-4)GlcNAc(b1-4)GlcNAc
Summary of the method: as §1

[24] = target: GlcNAc(b1-3)Gal(b1-4)GlcNAc(b1-2)Man(a1-3)[GlcNAc(b1-3)Gal(b1-4)GlcNAc(b1-2)Man(a1-6)]Man(b1-4)GlcNAc(b1-4)[Fuc(a1-6)]GlcNAc
Summary of the method: as §1

[25] = target: GlcNAc(b1-3)Gal(b1-4)GlcNAc(b1-2)[GlcNAc(b1-3)Gal(b1-4)GlcNAc(b1-6)]Man(a1-6)[GlcNAc(b1-3)Gal(b1-4)GlcNAc(b1-2)Man(a1-3)]Man(b1-4)GlcNAc(b1-4)GlcNAc
Summary of the method: as §1

[26] = target: GlcNAc(b1-3)Gal(b1-4)GlcNAc(b1-3)Gal(b1-4)GlcNAc
Summary of the method: as §1

[27] = target: GlcNAc(b1-3)Gal(b1-4)GlcNAc(b1-3)Gal(b1-4)GlcNAc(b1-2)Man(a1-3)[GlcNAc(b1-3)Gal(b1-4)GlcNAc(b1-3)Gal(b1-4)GlcNAc(b1-2)Man(a1-6)]Man(b1-4)GlcNAc(b1-4)GlcNAc
Summary of the method: as §1

[28] = target: GlcNAc(b1-3)Gal(b1-4)GlcNAc(b1-3)Gal(b1-4)GlcNAc(b1-2)Man(a1-3)[GlcNAc(b1-3)Gal(b1-4)GlcNAc(b1-3)Gal(b1-4)GlcNAc(b1-2)Man(a1-6)]Man(b1-4)GlcNAc(b1-4)[Fuc(a1-6)]GlcNAc
Summary of the method: as §1

[29] = target: GlcNAc(b1-3)Gal(b1-4)GlcNAc(b1-3)Gal(b1-4)GlcNAc(b1-2)[GlcNAc(b1-3)Gal(b1-4)GlcNAc(b1-3)Gal(b1-4)GlcNAc(b1-6)]Man(a1-6)[GlcNAc(b1-3)Gal(b1-4)GlcNAc(b1-3)Gal(b1-4)GlcNAc(b1-2)Man(a1-3)]Man(b1-4)GlcNAc(b1-4)[Fuc(a1-6)]GlcNAc
Summary of the method: as §1

[30] = target: GlcNAc(b1-3)Gal(b1-4)GlcNAc(b1-3)Gal(b1-4)GlcNAc(b1-3)Gal(b1-4)GlcNAc(b1-2)Man(a1-3)[GlcNAc(b1-3)Gal(b1-4)GlcNAc(b1-3)Gal(b1-4)GlcNAc(b1-3)Gal(b1-4)GlcNAc(b1-2)Man(a1-6)]Man(b1-4)GlcNAc(b1-4)GlcNAc
Summary of the method: as §1

[31] = target: GlcNAc(b1-3)Gal(b1-4)GlcNAc(b1-3)Gal(b1-4)GlcNAc(b1-3)Gal(b1-4)GlcNAc(b1-2)Man(a1-3)[GlcNAc(b1-3)Gal(b1-4)GlcNAc(b1-3)Gal(b1-4)GlcNAc(b1-3)Gal(b1-4)GlcNAc(b1-2)Man(a1-6)]Man(b1-4)GlcNAc(b1-4)[Fuc(a1-6)]GlcNAc
Summary of the method: as §1

[32] = target: GlcNAc(b1-3)Gal(b1-4)GlcNAc(b1-3)Gal(b1-4)GlcNAc(b1-3)Gal(b1-4)GlcNAc(b1-2)[GlcNAc(b1-3)Gal(b1-4)GlcNAc(b1-3)Gal(b1-4)GlcNAc(b1-3)Gal(b1-4)GlcNAc(b1-6)]Man(a1-6)[GlcNAc(b1-3)Gal(b1-4)GlcNAc(b1-3)Gal(b1-4)GlcNAc(b1-3)Gal(b1-4)GlcNAc(b1-2)Man(a1-3)]Man(b1-4)GlcNAc(b1-4)[Fuc(a1-6)]GlcNAc
Summary of the method: as §1

[33] = target: GlcNAc(b1-3)Gal(b1-4)GlcNAc(b1-3)Gal(b1-4)GlcNAc(b1-3)Gal(b1-4)GlcNAc(b1-3)Gal(b1-4)GlcNAc(b1-2)Man(a1-3)[GlcNAc(b1-3)Gal(b1-4)GlcNAc(b1-3)Gal(b1-4)GlcNAc(b1-3)Gal(b1-4)GlcNAc(b1-3)Gal(b1-4)GlcNAc(b1-2)Man(a1-6)]Man(b1-4)GlcNAc(b1-4)GlcNAc
Summary of the method: as §1

[34] = target: GlcNAc(b1-3)Gal(b1-4)GlcNAc(b1-3)Gal(b1-4)GlcNAc(b1-3)Gal(b1-4)GlcNAc(b1-3)Gal(b1-4)GlcNAc(b1-2)Man(a1-3)[GlcNAc(b1-3)Gal(b1-4)GlcNAc(b1-3)Gal(b1-4)GlcNAc(b1-3)Gal(b1-4)GlcNAc(b1-3)Gal(b1-4)GlcNAc(b1-2)Man(a1-6)]Man(b1-4)GlcNAc(b1-4)[Fuc(a1-6)]GlcNAc
Summary of the method: as §1

[35] = target: GlcNAc(b1-3)Gal(b1-4)GlcNAc(b1-3)Gal(b1-4)GlcNAc(b1-3)Gal(b1-4)GlcNAc(b1-3)Gal(b1-4)GlcNAc(b1-2)[GlcNAc(b1-3)Gal(b1-4)GlcNAc(b1-3)Gal(b1-4)GlcNAc(b1-3)Gal(b1-4)GlcNAc(b1-3)Gal(b1-4)GlcNAc(b1-6)]Man(a1-6)[GlcNAc(b1-3)Gal(b1-4)GlcNAc(b1-3)Gal(b1-4)GlcNAc(b1-3)Gal(b1-4)GlcNAc(b1-3)Gal(b1-4)GlcNAc(b1-2)Man(a1-3)]Man(b1-4)GlcNAc(b1-4)[Fuc(a1-6)]GlcNAc
Summary of the method: as §1

B1: B1567 (Bifidobacterium sp) (protein)
chain: MKFTTAKKAVALTGAVAMLVSVAACGSDSGKSSQPAQDSDVKEITVWAWEPSLTQVAKDFEKETGIKVDLKNVGTNTKEYTQLDNAIEAGSGAPDVAQVEYYAVPQYAIKGNLLDITDKTSGYKDFYTPGPWASVQFAGKVYGLPMDSGPMAFFYNKEVFDKAGVDAEQIKTWDQYYDAAKKIHALGDNYYITSDTGDAGFFDSMTWLAGAKPFQTSSDGSEVTVNLTEDKGVKTFTDFWQKLLDEGLLDTKTAGWSEDWFKGMVDGTIASLFTGAWMPANLANSAADGAGKWRVTQMPTADGSTTNSENGGSSLAVLASTKKADAAYQFIEYANHGAGVATRVAGGAFPADKASLEKDSFKNATTVKNADGQDVDYFGGQKYNEVLAQAAENVSSGYQFLPFEVKARTIFGDYFGKSYTGDQKLSDGVAAWQKALQDYGKDQGFTVK
- glycan array binding signal (z-score) [1]: -0.12
- glycan array binding signal (z-score) [2]: -0.101
- glycan array binding signal (z-score) [3]: -0.086
- glycan array binding signal (z-score) [4]: -0.146
- glycan array binding signal (z-score) [5]: -0.112
- glycan array binding signal (z-score) [6]: -0.071
- glycan array binding signal (z-score) [7]: 0.042
- glycan array binding signal (z-score) [8]: -0.111
- glycan array binding signal (z-score) [9]: -0.139
- glycan array binding signal (z-score) [10]: -0.105
- glycan array binding signal (z-score) [11]: -0.043
- glycan array binding signal (z-score) [12]: -0.115
- glycan array binding signal (z-score) [13]: -0.137
- glycan array binding signal (z-score) [14]: -0.099
- glycan array binding signal (z-score) [15]: -0.122
- glycan array binding signal (z-score) [16]: 0
- glycan array binding signal (z-score) [17]: -0.12
- glycan array binding signal (z-score) [18]: -0.088
- glycan array binding signal (z-score) [19]: -0.054
- glycan array binding signal (z-score) [20]: -0.113
- glycan array binding signal (z-score) (GlcNAc(b1-3)Fuc): -0.037
- glycan array binding signal (z-score) (GlcNAc(b1-3)Gal): -0.034
- glycan array binding signal (z-score) [21]: -0.081
- glycan array binding signal (z-score) (GlcNAc(b1-3)Gal(b1-4)Glc): -0.087
- glycan array binding signal (z-score) [22]: -0.127
- glycan array binding signal (z-score) [23]: -0.123
- glycan array binding signal (z-score) [24]: 0.033
- glycan array binding signal (z-score) [25]: -0.029
- glycan array binding signal (z-score) [26]: -0.124
- glycan array binding signal (z-score) [27]: 0.008
- glycan array binding signal (z-score) [28]: -0.075
- glycan array binding signal (z-score) [29]: 0.09
- glycan array binding signal (z-score) [30]: -0.073
- glycan array binding signal (z-score) [31]: -0.049
- glycan array binding signal (z-score) [32]: -0.057
- glycan array binding signal (z-score) [33]: -0.043
- glycan array binding signal (z-score) [34]: -0.059
- glycan array binding signal (z-score) [35]: -0.095
